Measured values published in the supplement of paper PMC3334620.
The full ranking holds about 33,000 sequences; the median of “E-score (-0.5 to 0.5)” is about -0.053, and the highest 2% start at about 0.37. This is one part of the list.

biological target: Hap1 (UniProt P0CE41); assay: PBM E-score (8-mer binding enrichment) (E-score (-0.5 to 0.5)); higher = stronger / more preferred TF binding; most listed sequences are background and not binding sites; conditions: protein concentration: 200 nM; construct: GST-DNA-binding domain
UniProt P0CE41, sequence (P0CE41 whole entry, the tested form may be a part): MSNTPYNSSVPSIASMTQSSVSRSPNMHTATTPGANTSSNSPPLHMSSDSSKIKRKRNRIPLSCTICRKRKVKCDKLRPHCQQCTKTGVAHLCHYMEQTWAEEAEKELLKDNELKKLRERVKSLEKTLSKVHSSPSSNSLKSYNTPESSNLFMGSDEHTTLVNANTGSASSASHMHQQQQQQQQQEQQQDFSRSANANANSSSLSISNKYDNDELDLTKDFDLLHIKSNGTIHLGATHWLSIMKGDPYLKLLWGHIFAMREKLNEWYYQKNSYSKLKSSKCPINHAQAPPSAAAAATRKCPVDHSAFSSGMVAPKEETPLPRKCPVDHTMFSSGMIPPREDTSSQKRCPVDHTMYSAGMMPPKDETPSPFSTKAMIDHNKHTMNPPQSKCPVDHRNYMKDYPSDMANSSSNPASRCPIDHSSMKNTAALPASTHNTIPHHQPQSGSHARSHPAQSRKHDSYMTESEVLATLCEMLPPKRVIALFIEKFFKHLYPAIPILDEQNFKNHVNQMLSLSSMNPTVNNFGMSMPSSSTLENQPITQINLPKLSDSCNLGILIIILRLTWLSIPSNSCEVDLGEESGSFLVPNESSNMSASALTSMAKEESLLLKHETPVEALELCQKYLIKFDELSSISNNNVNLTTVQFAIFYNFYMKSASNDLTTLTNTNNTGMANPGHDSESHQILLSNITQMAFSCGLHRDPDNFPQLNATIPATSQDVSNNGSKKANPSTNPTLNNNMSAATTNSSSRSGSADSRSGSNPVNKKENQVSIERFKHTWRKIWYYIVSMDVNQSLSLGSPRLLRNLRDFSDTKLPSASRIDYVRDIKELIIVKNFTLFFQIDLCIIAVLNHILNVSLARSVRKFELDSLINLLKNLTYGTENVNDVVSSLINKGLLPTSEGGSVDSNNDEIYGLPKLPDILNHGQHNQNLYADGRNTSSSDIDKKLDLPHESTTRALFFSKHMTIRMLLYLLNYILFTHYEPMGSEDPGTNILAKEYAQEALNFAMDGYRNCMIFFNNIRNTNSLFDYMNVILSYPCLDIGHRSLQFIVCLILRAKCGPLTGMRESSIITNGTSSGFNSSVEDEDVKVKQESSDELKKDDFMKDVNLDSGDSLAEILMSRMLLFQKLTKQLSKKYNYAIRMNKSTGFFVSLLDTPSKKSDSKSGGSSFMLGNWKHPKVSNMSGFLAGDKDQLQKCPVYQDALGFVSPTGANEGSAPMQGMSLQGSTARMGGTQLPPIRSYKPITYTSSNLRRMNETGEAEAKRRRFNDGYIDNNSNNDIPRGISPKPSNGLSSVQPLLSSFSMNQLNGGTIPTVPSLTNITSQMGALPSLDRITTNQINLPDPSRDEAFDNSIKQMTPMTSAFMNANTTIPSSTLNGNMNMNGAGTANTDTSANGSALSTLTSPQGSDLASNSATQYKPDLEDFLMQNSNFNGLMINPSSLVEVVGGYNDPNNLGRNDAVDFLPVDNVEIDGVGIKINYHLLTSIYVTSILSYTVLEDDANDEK
How it was run: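 Detection of bound protein used fluorescent anti-GST, with scans normalised by masliner. The proteins were GST-tagged yeast transcription factors applied at about 100-200 nM to universal all-10-mer Agilent arrays made double-stranded by primer extension. Each ungapped eight-base word, pooled with its reverse complement, was scored with an E-score from the Universal PBM Analysis Suite.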

| Sequence | PBM E-score |
| --- | --- |
| TACATTGA | -0.171 |
| TATGAGGA | -0.198 |
| AGTTCGGC | 0.211 |
| CTTTGGAC | -0.0353 |
| CAAGCCTA | -0.221 |
| ATTCTCGG | 0.339 |
| AGCTTTCG | 0.0808 |
| CAAGGTCC | -0.0114 |
| TCCCGAGA | 0.261 |
| GCACAAGA | -0.126 |
| GTCACCAC | 0.00067 |
| ACCAACGA | -0.116 |
| GCGGGCTA | 0.0199 |
| AAACCCCG | 0.438 |
| GATTACTA | 0.141 |
| CCGTACTA | 0.228 |
| ACGAGCAT | -0.306 |
| CCAGGGTA | -0.0668 |
| CACTAGCG | -0.0486 |
| GTATATAC | 0.0615 |
| AAACTCCG | 0.456 |
| ACCTTTAA | -0.123 |
| TCGACGCA | -0.0412 |
| CATTAAGC | -0.0379 |
| CTGTCATC | -0.0833 |

| Sequence | PBM E-score |
| --- | --- |
| AATGTGAT | 0.00864 |
| GTCATGAA | -0.0851 |
| AAGATCGA | 0.0254 |
| CTCGTCCA | -0.169 |
| AGGGTGTA | -0.0852 |
| AGGCTACT | -0.112 |
| GTCGACCA | 0.019 |
| GATTCACC | 0.159 |
| AGCGCACC | 0.149 |
| ACGGTCGC | -0.0968 |
| AAATGAGG | -0.0982 |
| ATGTCGAC | -0.0572 |
| GCCTCGCC | 0.045 |
| AATAGCGC | 0.0699 |
| CTCTGAGC | -0.157 |
| AAAGGACC | 0.0268 |
| AACACTCG | 0.012 |
| GGTCCACA | -0.173 |
| CTACTGGC | -0.0781 |
| CTGGCCCC | 0.0842 |
| CTCCAGCA | -0.241 |
| ATGACCAA | -0.0536 |
| CCGAACAC | 0.252 |
| GTAGTCAA | -0.219 |
| AAGTATGA | 0.00276 |

| Sequence | PBM E-score |
| --- | --- |
| CGGGAACC | 0.2 |
| AAGTGTTC | -0.00116 |
| GTGTAACA | -0.162 |
| TCGTAAGA | -0.13 |
| ATTGCTAC | -0.0392 |
| AAGAGAAT | 0.0433 |
| AGTTAAAA | 0.116 |
| GCCCCTAC | -0.0694 |
| GGATAGCC | -0.0145 |
| ACAAGGTA | -0.0805 |
| CCTCGAAG | -0.123 |
| ATAAAGTC | 0.00253 |
| AGGTTATA | -0.0688 |
| CCGTAGTA | 0.109 |
| GGCTTCAA | -0.0187 |
| ATACTGAT | 0.0437 |
| GCTGAACA | -0.105 |
| CAGGGTAC | -0.275 |
| CAGCCGGC | 0.331 |
| AACCCGAT | 0.375 |
| GGGAGTGA | -0.0645 |
| AGAAGGCT | -0.279 |
| CCTGACCC | 0.1 |
| TACGGTAA | 0.0382 |
| CAGCGCTA | -0.125 |

| Sequence | PBM E-score |
| --- | --- |
| CTAACCAA | -0.0485 |
| GACCCCTC | -0.0953 |
| GACCACAC | -0.197 |
| GCGCGCGC | 0.298 |
| GGCCCTAC | 0.0583 |
| CTTTGTGA | -0.178 |
| CCTTCTCA | -0.0508 |
| AGCTTTGA | -0.0822 |
| CGGAAGTC | 0.305 |
| ACCCGGCC | 0.305 |
| AAAGAGTA | -0.136 |
| CCTGAAAG | -0.202 |
| AGGCAACG | -0.00759 |
| GATTGGTA | 0.0411 |
| ACAATATG | 0.13 |
| CCATAAAA | 0.0761 |
| ACATCACC | 0.134 |
| AACGCCTG | -0.00879 |
| CACTTACG | 0.0631 |
| CTTGAACC | -0.0694 |
| AATATATT | 0.0617 |
| TCACAGAA | -0.273 |
| GACAGCCA | -0.149 |
| AACGACGC | -0.171 |
| ACTCTCCA | -0.172 |

| Sequence | PBM E-score |
| --- | --- |
| ATCCCTTC | -0.2 |
| CGCCCAAA | -0.057 |
| CAACCCGC | 0.0375 |
| GCCAGTGA | -0.171 |
| CGCTGAAC | -0.149 |
| AGCCGCCC | 0.146 |
| CTATACTC | -0.0351 |
| CTCGCGGC | 0.109 |
| AATTCTTG | -0.198 |
| AGTCGCAC | -0.219 |
| AGTGAGTG | -0.12 |
| CGATTCCC | 0.189 |
| ACAAAATA | -0.116 |
| CGTGTAGC | -0.195 |
| CCGAACAG | 0.311 |
| ACTCTAAC | -0.113 |
| GATGAATC | 0.00529 |
| CAACCCTA | -0.147 |
| ATAGTCGC | 0.0221 |
| CGTGGCTC | -0.204 |
| ATGTGAGA | -0.197 |
| ATTACTCG | -0.0133 |
| ATACTGTG | -0.184 |
| ATCATTAC | 0.0082 |
| CCGCATTC | 0.026 |

| Sequence | PBM E-score |
| --- | --- |
| ACCACTCA | -0.302 |
| CCTCGCCC | 0.0415 |
| AAGCCAGC | -0.172 |
| CTTCTATC | 0.0609 |
| CCGGCCTA | 0.288 |
| CGCGGCCA | 0.142 |
| GTAGCTTA | -0.0577 |
| CATCCTCC | -0.00263 |
| AGAACTTG | -0.211 |
| AATGGCTG | -0.0579 |
| CCGCCATC | 0.0194 |
| TATCTACA | -0.0922 |
| GAGGTAAC | 0.184 |
| ACAAGAAC | 0.0025 |
| GTTGATTA | -0.092 |
| CAGCACAA | -0.014 |
| ACGGGGCT | 0.209 |
| CTAATCAG | -0.111 |
| GGGTCAGA | -0.0904 |
| CTCTACAA | -0.178 |
| AGATACAA | 0.0255 |
| CCAACTGC | 0.0731 |
| ACAGCGGA | 0.147 |
| AAGCGGGA | 0.0654 |
| CACCGAGA | 0.259 |

| Sequence | PBM E-score |
| --- | --- |
| AACCGCAC | 0.0423 |
| CGCCCCAG | -0.0209 |
| CCTTGATC | -0.101 |
| ACATGAAG | -0.0999 |
| CACAATGG | -0.0558 |
| CATCATTA | 0.0391 |
| TTATATAA | 0.156 |
| GAGCATGC | -0.125 |
| AGCGGCGG | 0.291 |
| AGCATATA | 0.167 |
| ATACTCAC | -0.078 |
| ATGAGGGG | -0.21 |
| CGTACATC | -0.102 |
| GAGTAAGC | -0.0491 |
| CTGTCGCA | -0.0599 |
| ATAACGGC | 0.355 |
| ACCAGAAT | -0.208 |
| ATTGCTTA | 7e-05 |
| ACACATCG | -0.131 |
| CATAAACG | -0.00967 |
| ACCCGCAT | 0.166 |
| ATTTTGTG | -0.0149 |
